About 230 (0.21%) of roughly 110,000 compounds showed an effect of 50% or more. Some of the results follow.
Biological target: DPAP1 (Plasmodium falciparum, UniProt Q8IIJ9)
Assay: primary screen, percent inhibition; read by cleavage of a fluorogenic dipeptide substrate; higher = more effect of the substance
Design: species or system P. falciparum D10 trophozoite lysates; single well
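Further: 30 min substrate incubation versus DMSO and 10 µM JCP410 controls.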

Chain of DPAP1 (Q8IIJ9 whole entry, looked up): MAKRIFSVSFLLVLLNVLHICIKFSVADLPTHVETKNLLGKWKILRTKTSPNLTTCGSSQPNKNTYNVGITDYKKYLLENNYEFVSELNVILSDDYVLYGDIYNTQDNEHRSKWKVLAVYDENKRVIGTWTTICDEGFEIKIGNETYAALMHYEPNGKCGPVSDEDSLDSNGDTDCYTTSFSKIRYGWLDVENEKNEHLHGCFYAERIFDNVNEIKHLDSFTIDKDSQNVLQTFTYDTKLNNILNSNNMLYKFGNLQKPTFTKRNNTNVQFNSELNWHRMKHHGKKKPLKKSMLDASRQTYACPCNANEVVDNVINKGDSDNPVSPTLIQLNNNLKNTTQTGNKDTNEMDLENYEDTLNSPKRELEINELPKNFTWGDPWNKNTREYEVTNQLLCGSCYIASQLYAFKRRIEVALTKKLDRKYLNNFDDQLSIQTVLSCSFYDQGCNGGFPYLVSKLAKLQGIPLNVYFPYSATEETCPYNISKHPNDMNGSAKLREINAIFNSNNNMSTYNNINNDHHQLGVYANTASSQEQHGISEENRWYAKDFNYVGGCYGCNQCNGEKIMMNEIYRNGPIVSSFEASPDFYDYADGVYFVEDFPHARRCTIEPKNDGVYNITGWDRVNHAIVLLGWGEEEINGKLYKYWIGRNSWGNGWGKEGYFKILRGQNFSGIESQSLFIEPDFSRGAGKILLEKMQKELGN

| Structure (SMILES) | % Inhibition @ 10 uM [%] |
| --- | --- |
| CCC(Sc1nc2nccnc2c(=O)n1Cc1ccc2c(c1)OCO2)C(=O)NC1CCCCC1 (stereo not drawn) | -1.26 |
| CC(C)C[C@H](NC(=O)OCc1ccccc1)C(=O)NC(C#N)CC(C)(C)C (stereo partly drawn) | -3.04 |
| CC1CCc2nn(CC(=O)NC3CCN(Cc4ccccc4)CC3)cc2C1 (stereo not drawn) | 1.8 |
| O=C(O)Cn1nnc(-c2ccccc2)n1 | -2.28 |
| Cc1ccc(CN2CCC(CNC(=O)c3cc(C)nc4c3c(C)nn4-c3ccc(C)cc3)C2)cc1 (stereo not drawn) | -9.36 |
| CCOc1ccc(-c2nnc(NC(=O)c3ccccc3Br)s2)cc1 | 4.35 |
| Cc1ccc(S(=O)(=O)Cc2nc(-c3ccc(C(=O)N4CCC5(CC4)OCCO5)cc3)oc2C)cc1 | -5.73 |
| CC(C)CSc1nc2c(c(=O)[nH]c(=O)n2C)n1Cc1cccc(Br)c1 | -3.9 |
| COc1ccc(N2C(=O)CC(Nc3ccc(N4CCCCC4)cc3)C2=O)cc1 (stereo not drawn) | -0.0938 |
| CC1=C(C)CC2C(=O)N(c3ccccc3)C(=O)C2C1 (stereo not drawn) | -3.03 |
| O=c1c(Cl)c(N2CCCCCC2)cnn1C12CC3CC(CC(C3)C1)C2 | 1.72 |
| O=C1c2ccccc2S(=O)(=O)N1Cc1ccc(Br)cc1 | 6.74 |
| COc1ccc(-c2c3c(=O)n(C)c(=O)n(C)c3cn2-c2ccc(C)cc2C)cc1 | 4.54 |
| O=C(c1cc2c(Cl)nc3ccccc3c2s1)N1CCCC1 | 0.521 |
| CCOC(=O)CNC(=O)[C@H](CC(C)C)NC(=O)[C@@H]1CCCN1C#N | -2.35 |
| COC(=O)c1cc2oc(C)cc2n1CC(=O)NCCC1=CCCCC1 | -6.77 |
| CC1(C)NC(C(=O)O)Cc2c1[nH]c1ccccc21 (stereo not drawn) | -0.197 |
| CO/C(O)=C1/C(C)=NC(=S)NC1c1ccccc1 (stereo not drawn) | -2.87 |
| CC(=O)c1cc(C(=O)c2ccccc2)sc1Nc1ccc(C)cc1 | -5.28 |
| COc1ccc(CN2CCN(c3ccc(F)cc3)CC2)c(C)c1C | -3.65 |
| COc1ccc(-c2cc(C(F)(F)F)n3ncc(C(=O)N(C)Cc4cnn(C)c4C)c3n2)cc1OC | -2.9 |
| O=C(O)c1cnn(-c2ccccc2)c1-n1cccc1CNCCc1cccs1 | 4.79 |
| CCc1ccc2nc(N3CCC(C(=O)NCCCN4CCCCC4CC)CC3)sc2c1 (stereo not drawn) | -5.92 |
| CCOc1ccc(CCNCc2c(C(=O)O)[nH]c3cc(OC)ccc23)cc1OCC | -6.3 |
| CCc1ccc(OCC(O)CN2CCCC2)cc1 (stereo not drawn) | 3.61 |
| Cc1coc2c1c(C)cc1oc(=O)c3c(c12)CCC3 | -8.61 |

| Structure (SMILES) | % Inhibition @ 10 uM [%] |
| --- | --- |
| Cc1ccc(S(=O)(=O)N2c3ccccc3C(Nc3ccccc3)CC2C)cc1 (stereo not drawn) | 2.7 |
| CCc1ccc(CNC(=O)c2ccc3c(c2)c(C)c(C)n3C)cc1 | 1.95 |
| CC(=O)N1C=Cc2ccccc2C1c1c[nH]c2ccccc12 (stereo not drawn) | -1.77 |
| Cc1oc(-c2cccs2)nc1Cn1c(=O)cc(C)c2c(C)nn(-c3cccc(F)c3)c21 | 3.96 |
| COc1cc2c(cc1OC)C(c1ccc(F)cc1)CC(=O)N2 (stereo not drawn) | -1.2 |
| O=C(NC(=S)n1cnc2ccccc21)C12CC3CC(CC(C3)C1)C2 | -1.29 |
| Cc1c(C)n(C)c2ccc(C(=O)NCCCOC(C)C)cc12 | 4.27 |
| Cc1ccc(S(=O)(=O)N(CCC#N)CCC#N)cc1 | 0.0345 |
| CC1CCC(N2CCN(c3ccccc3)CC2)C1 (stereo not drawn) | -9.12 |
| S=C(NCc1ccccc1)c1ccccn1 | 4.22 |
| Cc1nn(C)cc1CNC(=O)Nc1ccc(Cl)c(Cl)c1 | -1.26 |
| O=C(c1ccccc1Cl)n1cc(Cl)cn1 | 4.22 |
| COc1cc2[nH]c(C)c(C)c2c2c(C)cc(C)nc12 | 4.33 |
| CC(C)C[C@H](NC(=O)OCc1ccccc1)C(=O)NC(CO)CCC(=O)Nc1ccccc1 (stereo partly drawn) | -2.35 |
| Cc1cccc(C)c1NC(=O)c1ccc(Cl)c([N+](=O)[O-])c1 | -0.127 |
| Cc1ccn2cc(CNC(=O)c3ccc(Br)o3)nc2c1 | -5.37 |
| Cc1cccc(NC(=O)CCCC(=O)O)n1 | -1.56 |
| CC1CC(C)CN(C(=O)CCc2nnc3ccc(N4CCCC4)nn23)C1 (stereo not drawn) | -3.13 |
| C1CN(C23CC4CC(CC(C4)C2)C3)CCN1 | -0.239 |
| CC1CCCC(NC(=O)Cn2ccc3cc(S(=O)(=O)N4CCCC4)ccc32)C1C (stereo not drawn) | 2.45 |
| Cc1nn(CC(=O)NC2CCCC(C)C2C)c(=O)c2cc3occc3n12 (stereo not drawn) | 3 |
| CCOc1ccc(/C=C2\N=C(c3ccc(Cl)cc3)OC2=O)cc1 | 1.11 |
| COc1ccc(CN2CC(C(=O)NC3CC3)CC2=O)cc1 (stereo not drawn) | -1.21 |
| COc1ccc(C2C(C(=O)Nc3cccnc3)=C(C)Nc3nc(-c4cccs4)nn32)cc1OC (stereo not drawn) | -2.05 |
| COc1ccc2c(OC)cc(-c3ccccc3)nc2c1 | 3.24 |

From PMC6919601, “Identification of Plasmodium dipeptidyl aminopeptidase allosteric inhibitors by high throughput screening” (PLoS ONE, 2019)
